# Results: the supplement of paper PMC11417369
# ± gives the standard deviation of the averaged measurements. Some of the results follow.
# Tested on: PfAP2-LT AP2 domain (GST-tagged)
# Assay: gcPBM binding intensity (ln(normalized median fluorescence intensity)); higher = stronger DNA binding
# How it was run: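 Probes on an Agilent 4 × 180k array were primer-extended, double-stranded and 36 bp long, taken from intergenic genomic regions, with negative controls added. GST-tagged P. falciparum DNA-binding domains from E. coli, about 25 μg on average, were applied to the array for 1 h in 1× PBS containing 1% milk, 0.2 mg/ml BSA, 0.5% salmon testes DNA and 0.03% Triton X-100. Binding intensity, obtained after Alexa488 anti-GST antibody detection and a 488 nm scan, is the highest Masliner-normalised natural-log median intensity across replicate spots of either probe orientation.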
row,Sequence,gcPBM binding intensity (ln)
1,TTGTCTGACTAATTTTTTTCTGTTTGTACGTTCTTA [GTGCAC_negctrl_site602],8.95 ± 0.49
2,TTTTTATACAACTTATAATACATCTGAAAATATAAA [XGTACX_negctrl_site36],8.25 ± 0.33
3,TATCACATATTATGATGTACAAGGTTTCTGACTAAT [XGTACX_site2763],8.68 ± 0.52
4,CACATACACATACAAACACACATTATATATATATAT [CACACA_site8460],9.59 ± 0.41
5,CATCCATTATTAATATGTACATATGTATATATATTA [XGTACX_site1318],8.75 ± 0.41
6,GAAAAAAAAAAAAGGGGTACATTTATTTTATCAATA [XGTACX_site8331],8.46 ± 0.34
7,TTTTTTTTTTTTTTTTTTTTTTTCTTTATTTTTTTT [CACACA_negctrl_site703],8.16 ± 0.43
8,AACTTTTTACAAACAGGTACGCATATATATATATAT [XGTACX_site5081],9.745 ± 0.05
9,AAAATTTAAAAATGGACACACACAAAAAATAATACT [CACACA_site7972],9.38 ± 0.37
10,AATAATTATTTGTATAGTACAATATACAAAAGATGA [XGTACX_site4312],8.74 ± 0.52
11,ATATATATATGTGCCAGTACACATGTATACATTATA [XGTACX_site3899],8.99 ± 0.34
12,GATATATATATTCACACACACATGGAAATATATATA [CACACA_site382],9.38 ± 0.25
13,TCGTCACTTTAATATTGTACATATATATATATATAT [XGTACX_site8046],9.41 ± 0.057
14,TATAAATATAGACACACACACACACCGAAGCGTAGC [CACACA_site6180],10 ± 0.14
15,AAAATTAATAAATAAACACACATATTTATATTTATA [CACACA_site7266],8.6 ± 0.46
16,TGTGTAAATATGTATACACACATATCTGATCAATAT [CACACA_site7507],9.06 ± 0.38
17,TATATCTACTTAAAAAGTACGTAAATTATAAGCTAT [XGTACX_site6420],8.53 ± 0.45
18,TATATGTATTTATATACACACATATTCTTTTTACAC [CACACA_site8320],9.11 ± 0.46
19,AATATTTTGAACAACAGTACTCTTTCTTTCTTTCTT [XGTACX_site7212],8.7 ± 0.51
20,TCCTTTTCATCTTGTAGTACGGAAATGTAGCTCCAA [XGTACX_site8563],8.55 ± 0.42
21,ATATATAAAATTATATGTACATATATCTATTTATAA [XGTACX_site3713],8.62 ± 0.46
22,ACCTCACAAATGAATACACACAAACATATAGATTTA [CACACA_site6862],9.12 ± 0.5

row,Sequence,gcPBM binding intensity (ln)
1,TTTAAAATTTCTTAATGTACGTAATAAAAAAAAAAA [XGTACX_site4037],8.15 ± 0.4
2,GATTAAAACTTTAACTGTACATAATAATTATCAATC [XGTACX_site5938],8.6 ± 0.36
3,TATGTATAACTCAATGCATGCGAAGGACTATTATTT [TGCATGCA_site222],8.94 ± 0.15
4,AATATTGTTCACAAGGTGCTTTTTATTCATACTAAT,8.87 ± 0.35
5,TATAAAGCAACTGAAACACACAAATTTTTTTTTTTT [CACACA_site3218],8.72 ± 0.44
6,ACTATTTTCTTCAAAACATGCACCACATAAACATAA [TGCATGCA_site200],8.68 ± 0.32
7,ATTATTTATTTATGTGTGCGCATGTGTGTAAATATT,9.74 ± 0.28
8,TTAAACATATATTAAGCACACACAAACAAAAAAACA [CACACA_site8816],9.37 ± 0.31
9,TATACCAAATATATGGGTACACAAATATGTTTATTC [XGTACX_site8932],8.84 ± 0.42
10,AACATATTTTTTTGTTGTACTTACAATTATAAGCAT [XGTACX_site3056],8.64 ± 0.43
11,TAATTAATCGATTTACGCACATGAACAAAAGCACAT [CACACA_negctrl_site1287],8.95 ± 0.36
12,ATATATATATATATGTGTACATATTTTTTTTTTTTT [XGTACX_site3425],9.645 ± 0.05
13,AGAAAAAAAAAAAATGCACACATTTTCATTGTCAGT [CACACA_site1935],8.9 ± 0.42
14,AAAAAACACAGACATACACACAAAAAGGTTATAAAT [CACACA_site4222],9.49 ± 0.31
15,GTAAATATTAATAAAAGTACATATGTAGCATATGGA [XGTACX_site5219],9.07 ± 0.43
16,CCTTTTTTATTTACAACACACGTAAAGGTTCAAATA [CACACA_site1741],8.68 ± 0.42
17,ATTTTTTAAATGAGGCGTACACAAAAATATAATTAC [XGTACX_site7087],8.93 ± 0.37
18,TATATATATATATATACACACACACTAATAAAAAAA [CACACA_site8426],9.65 ± 0.057
19,CTTAGATATAAAAATTGTACATACATATTTTTGACA [XGTACX_site2107],8.5 ± 0.3
20,TTTTTTTCGTAAAAAAAAATAATTATTAAATGAAGG [TGCATGCA_negctrl_site212],8.04 ± 0.33
21,ACAGAAAAAAGACACACACACATAATATACATACAT [CACACA_site6991],10.1 ± 0.42
22,TATTTTTAATAAAAACGTACGGAATACAAAAAAAAT [XGTACX_site3477],8.78 ± 0.38
